The source gives no read counts; variants with many changes may rest on few reads.
B1: OR4K15 (parent)
chain: GUUAACGGUCAUAGGCCAUGGAAACUAGGAGCACCAUUUCGCUGCCAGUGAAGAAAUGAACAAAGAAAAUCUGGGCCAGGCAGGCAUCAAAAGAAAUAGUCUUGCGCUCAACCAGAAAGUCUGUAAUCAUUUUAAGGGUA

Variants of: B1
Assay: self-cleavage, relative activity (ratio to wild type); higher = more cleavage; in vitro, sequencing; the parent is a self-cleaving ribozyme

Variant | self-cleavage
A33C G41A A82U | 0.18
A30G A47G U124C A129G | 0.08
A33G A68G C85G A94G | 0.2
A33G A111G U122C | 0.07
A33G A68G C109U | 0.23
G31A A68G A117U U130C | 0.58
A30G U87A U97C U100C | 1.99
A33G A54G A90G U100A | 0.31
A33G A62G A96G | 0.91
A33G U37C A96G A116G | 0.32
A30G A33G U38C A59G | 1.41
A30G A69U U100C U108A | 0.11
A30G A56G U108C | 0
A33G A63G A118G A126G | 0.22
A30G A78G U87C A89G A90G A116G | 0.1
A30U A33G U70C U87C A129G U131C | 0.14
A33G C45U A91G | 0.72
A30G G44A U49G A78G G106A | 0.08
A30U U108C U130C | 0.02
G31A A33U A68G A86G A117G | 1.49
A30U A94U A111G U122A | 0.01

Variant | self-cleavage
A33G U38C A129G | 0.99
A30G A114U A117G U124C | 0
A33G A89G U120A U139C | 1.04
G29U A54G A96G | 1.93
A30U A60G A66G A90C | 1.18
A30G A66G U70C U132C A135G | 0.7
A33G A96G A125G | 0.22
A30G A52G U87C A111G A118U A126G | 0.01
A33G A86G A96G U130C G137A | 0.26
A30U U37C A92G | 1.64
A30G U39C A68G U70C U122C | 0.63
A33G A68G G73A | 0.18
A30G A56G A89G U97A | 1.17
A33C C113A A118G | 0.01
A30G A33G U102C | 1.15
A30G A47U A86U A92G | 1.39
A33G A89U A110G U132A | 0.05
A30G A33G G83A | 1.67
A30G A110G A114G | 0.02
A30G A91G U124C U132A | 0.89
A33G A55G A89G A126G | 0.45

Variant | self-cleavage
A30G A86U A111G U132C | 0
G31A A64G U127C | 0.46
A30G A92G A114C | 0.01
A33G A69U U108C | 0.01
A30G A69C A89G U108A | 0.03
A33G A59U A118G | 0.4
A33G U37C A60G A134G | 1.05
A33G A62U A63G A94G A96U | 0.33
A30U G106A C121U | 0.01
C32U A67G A116G A118G U130C | 0.07
A30G A68G A96G | 1.38
A33G A67G A118G | 0.35
A30U G41A A91G | 1.31
A30G A33G G48C A54G | 0.46
A30G U43C A98G | 0.56
A33G U38C U72C A117G | 0.21
A33G A52G A62G | 0.7
A30U A67G U108C | 0
A33G A94U A129G | 0.5
A30G A64G U87C A118G | 0.6
A33G U49C A89G | 0.42

Variant | self-cleavage
A33G U38C A117G A118G U120C | 0.26
A30G U37C U122A A135U | 1.78
A30G A60G A91U | 1.86
A30G A64G A68G A116U U120C | 0.59
A30G A52G A54G G83U | 0.7
A33G A59U A67G | 0.56
A33G A86G A140G | 0.52
A30G A91G A96G U102C | 1.44
A33G U37C U70C U97C | 0.08
G31A A91G A94G | 1.72
A30G U38C U39A A78U A92G | 0.41
A30C A95G A126G | 0.94
A30G A67G C105U A114G | 0.09
A30G A55G A89G A126G | 0.89
A30G U38C A66U | 1.37
G31A A68G A78G A114G | 0.03
A30G A52U A60G A82G A96G A117G | 0.39
A33C A56G A62U A92U U103C | 0.92
A30G A33G A125U | 1.87
A30G A111U A129G | 0.06

From the RNAGym collection of RNA variant scans (doi:10.7554/elife.90254)
